Our source for the self-cleavage values is the RNAGym collection of RNA variant scans (doi:10.7554/elife.90254).

The source gives no read counts; variants with many changes may rest on few reads.

B1: LINE1-mini (parent)
chain: GGCAGAGCUCAACACAGCGUGGCAAAGUGGCUGUGGCUAGACUGCC

This data set covers variants of B1. Nature of the data set: self-cleavage, relative activity (ratio to wild type); higher = more cleavage; in vitro, sequencing; the parent is a self-cleaving ribozyme.
Consider CGCAGAGCUCAACACAGCGUGGCAAAGUGUCAGUGGCCAGAUCGCC [G1C G30U U32A U38C C42U U43C], for which the self-cleavage stood at 0.01.

For the variant UGCCGAGCUCAACACAGGGAGGCAAAGUGGCUGUGGCUAGACUGCC [G1U A4C C18G U20A], the self-cleavage stood at 0.05.

Consider UGCAGUGCUCAACACAGCGUGGUAAAGUGGCUGUGGCUAGAUUGCC [G1U A6U C23U C42U], for which the self-cleavage is 0.03.

For UGCAGAGCUCAACUCAACGCGGCAAUGUGGCUGUGGCUAGACUGCC [G1U A14U G17A U20C A26U], the self-cleavage was 0.05.

Regarding UGCAGAGCUCAUCACAGCGCGGCAAAGUGGCUGUGGCUAGACUGCC [G1U A12U U20C], the self-cleavage amounted to 0.06.

UGCAGAGCUCAACACAGCGUGGCGAAGUCGCUGUGACUAGACUGCC [G1U A24G G29C G36A]: the self-cleavage was determined as 0.04.

Consider CGCAGAGCUCAACACAGCGUGGCAAAGUGCCUGUGAAUAGACUGCC [G1C G30C G36A C37A], for which the self-cleavage came out at 0.

As for UGCAGUGCUCAACACAGCGUGGGAUAGUGGCUGUGACUAGACUGCC [G1U A6U C23G A25U G36A], the self-cleavage was 0.09.

As for UGCAGAGCUCAACACUGCGUGGCAAAGUGGCUGUUGCUAGACUGCC [G1U A16U G35U], the self-cleavage came out at 0.02.

Consider UGCAGCGAUCUACACAGCGUGGCAAAUUGGAUGUGGCUAGACUGCC [G1U A6C C8A A11U G27U C31A], for which the self-cleavage was found to be 0.02.

As to UGCAGAGCUCUACACAGCGUGGCAAAGUGGCUGUGGCGAGCCUGCC [G1U A11U U38G A41C], the self-cleavage was 0.01.

CGCAGAGCUCAACACAGCUUGGCAAAGUGGCUGUGGCUAGAAUGCC [G1C G19U C42A]: the self-cleavage came out at 0.03.

With UGCAGAGCUCAUCACAGCGUGGCAAAGUGGCUGUGGCUAGACUGUC [G1U A12U C45U], the self-cleavage turned out to be 0.17.

Take CGCAGAGCUCAACACAGCGUGGCAAAGUGGCUGUGUCUAGACUUCC [G1C G36U G44U]: the self-cleavage amounted to 0.04.

Regarding UGCGGAGCUCAAAACAGGGUGGCAAAGGAGCUGUGGGUAGAAUGCC [G1U A4G C13A C18G U28G G29A C37G C42A], the self-cleavage came to 0.15.

With CGCAGAGCUCAACACAGCGUGGCAAAGUGUCUGUGGCUAUACUGCC [G1C G30U G40U], the self-cleavage came out at 0.

As to UGCAGUGAUCAACACAGCGAGGCAAAGUGGCUGUGGCUGAACUGCC [G1U A6U C8A U20A A39G G40A], the self-cleavage amounted to 0.03.

In the case of UGCGGAGCUCAACACAGCGUGGCAAAGUGGCUGUGGCUAGGCUCCC [G1U A4G A41G G44C], the self-cleavage stood at 0.03.

Regarding CGCAGAGCUCAACACAGCGUGGCAAAGUAGCUGUGGCUAGAUUGCC [G1C G29A C42U], the self-cleavage worked out at 0.01.

As for UGCGGAGCUCAACACAGCGUGGCAAAGUGACCGUGGCUAGACUGCC [G1U A4G G30A U32C], the self-cleavage came out at 0.02.

Regarding CGCAGAGCUCAACACAGCGUGGCAAAGUGGCUGAGGCUAUACUGCC [G1C U34A G40U], the self-cleavage amounted to 0.02.

In the case of UGCGGAGCUCAACACAGCGUGGCAAAGUGGCUGUAGCUAGACUGCC [G1U A4G G35A], the self-cleavage amounted to 0.2.

As for CGCAGAGCCCAACACAGCGUGGCAAAGUGGCUGUGGGUAGUCUGCC [G1C U9C C37G A41U], the self-cleavage is 0.01.

For UGCAGAGCUCAUUACAGCGUGGCAAAGUGGCUGUUGCUAGACUGCC [G1U A12U C13U G35U], the self-cleavage turned out to be 0.03.

For UGCAGAGCUCAACACAGCGUGGCCAAGUCGCCGUGGCUAGACUGCC [G1U A24C G29C U32C], the self-cleavage was 0.03.

For the variant UGCCGAGAUCAACACAGCGUGGCAAAGUGGCUGUAGCUAGACUGCC [G1U A4C C8A G35A], the self-cleavage was found to be 0.16.

On to UGCUGGGCUCAACACGGCGUAGCAAAGUGGCUGUGGCUAGACUGCC [G1U A4U A6G A16G G21A], for which the self-cleavage amounted to 0.04.

On to CGCAGAGCUCAACACAGCCUGGCAAAGGGGCUGUGGCUAGACUGCC [G1C G19C U28G], for which the self-cleavage stood at 0.08.

Turning to CGCAGAGCUCAACACAGCGUGGCAAAGUGGCUAUGGGUAGACUGCC [G1C G33A C37G], the self-cleavage is 0.01.

Turning to UGCAGAGCUCAACACGGCGUGGCAAAUUGGCUGUGGCUAGACUGCC [G1U A16G G27U], the self-cleavage was 0.16.

CGCAGAGCUCAACACAGCGUGUGAAAGUGACUCUGGCUAAACUGCC [G1C G22U C23G G30A G33C G40A]: the self-cleavage is 0.

Turning to CGCAGAGCUCAACACAGCGCCGCAAAGAGGCUGUGGCUAGACUGAC [G1C U20C G21C U28A C45A], the self-cleavage amounted to 0.08.

On to UGCAGCGCUCAACACAGCGUUGCAAAGUGGCUGUGACUAGACUGCC [G1U A6C G21U G36A], for which the self-cleavage is 0.02.

For the variant CGCAGAGCUCAACACAGCGUGGCAAAUUGCCUGUGGCUAAACUGCC [G1C G27U G30C G40A], the self-cleavage worked out at 0.

Consider CGCAGAGCCCAACACAGCAUGGCAACGUGGCUGUGGCUAGUCUGCC [G1C U9C G19A A26C A41U], for which the self-cleavage is 0.04.

With CGCAGAGCUCAACACAGCGUGGCAAACUGGGUGUGGGUAGACUGCA [G1C G27C C31G C37G C46A], the self-cleavage worked out at 0.

Take UGCGGAGCUCAACACAGCGUGGCAAAGUGGCUGUGGCUAGACCGCC [G1U A4G U43C]: the self-cleavage was determined as 1.73.

In the case of CGCAGAGCACAACACAGCGUGGAAAAGUGGCCACGGCUAGACUGCC [G1C U9A C23A U32C G33A U34C], the self-cleavage came to 0.03.

For UGCCGAGCUCAACACAGCGUGGCAAAUAGGCUGUGGCUAGGCUGCC [G1U A4C G27U U28A A41G], the self-cleavage stood at 0.01.

Take UGCUAGGCUCAAGACAGCGUGGCAAAGUGGCUGUGGCUAAACUGCC [G1U A4U G5A A6G C13G G40A]: the self-cleavage came to 0.03.

Regarding UGCAGAGCUCACGACAGCGUGGCAAAGUGGCUAUGGCUAUACUGCC [G1U A12C C13G G33A G40U], the self-cleavage was determined as 0.

With UGCAGAGCUCAACACAGCGUGGCUAAGUGGCUGUGGCUUGUCUGCC [G1U A24U A39U A41U], the self-cleavage was determined as 0.14.

For the variant UGCGGAGCUCAACAACGCGGGGCAAAGUGGGAGUGGCUAGACUUCC [G1U A4G C15A A16C U20G C31G U32A G44U], the self-cleavage was determined as 0.09.

Regarding UGCAGAGCUCAUCACAGCGUGGCAAAGUGGCUGUCGCUAGACCACC [G1U A12U G35C U43C G44A], the self-cleavage worked out at 0.01.

CGCAGAGCUCAACACAGCGGGGCAAAAUGGCUGUGGCUAGACUGCA [G1C U20G G27A C46A]: the self-cleavage worked out at 0.03.

Regarding UGCAGAGCUCGAAACAGAGUGCCAAAGUGGCUGUGGAUCGACUACC [G1U A11G C13A C18A G22C C37A A39C G44A], the self-cleavage came out at 0.

As for CGCAGAGCUCAACACAGCGUUGCAACGUGGCUGUGGCUAAACUGCC [G1C G21U A26C G40A], the self-cleavage was 0.06.

As for UGCAGAGCUCAACACAGCGUGGCACAAUGGCUGUGGCUAGACUGCC [G1U A25C G27A], the self-cleavage turned out to be 0.29.

As to UGCAGAGCUCAACACAGCGUGGCUAAGUGGCUGGGGCUAGACUGCC [G1U A24U U34G], the self-cleavage came out at 0.14.

On to UGCAGAGCUCAACACUGCGUGGCAAAGUGGCUGUGUCUAGACUGCC [G1U A16U G36U], for which the self-cleavage came out at 0.05.

For the variant CGCAGAGCUCAACACAGCGUGGCAAAGUGGCGGUGGCUUGACUGCC [G1C U32G A39U], the self-cleavage turned out to be 0.

With CGCAGAGCUCAACACAGCGUGGCAAAGUGGCUUUGGCUAGAUUGCC [G1C G33U C42U], the self-cleavage was 0.02.

UGCAGAGCUCGACACAGCGUGGCAAAGUGGCUGUGGCUAGAUUGCC [G1U A11G C42U]: the self-cleavage came to 0.04.

In the case of UGCAGAGCUCAGAACAGCGAGGUAAAGUGGCUGUGGCUAGACUGCC [G1U A12G C13A U20A C23U], the self-cleavage came out at 0.04.

UGCAGCGCUCAACACAGCGUGGCAAAGUGGCUAUGGCUAGGCUGCC [G1U A6C G33A A41G]: the self-cleavage is 0.08.

Turning to UGCUGAGCUCCACACAGCGUUGCAAAGUGGGUGUAGCCAGACUGCC [G1U A4U A11C G21U C31G G35A U38C], the self-cleavage amounted to 0.
